{"source": "the supplement of paper PMC6135742", "note": "Counter-ions that a name gives are not always drawn. ± gives the standard deviation of the averaged measurements. In all, about 2,600 compounds were measured (“total cell number (DAPI+ nuclei) relative to DMSO vehicle control”: median about -1.4, lowest 2% from about -23 on). The list shows a part of the results."}
{"tested_on": "jimpy (Plp1 jimpy) mouse iPSC-derived oligodendrocyte progenitor cells", "experiment": "total cell number (DAPI+ nuclei) relative to DMSO vehicle control (SDs above negative control mean); higher = more surviving cells", "conditions": "10 µM; 3 days"}
{"smiles": "COc1c(N2CCNC(C)C2)c(F)cc2c(=O)c(C(=O)O)cn(C3CC3)c12", "note": "(stereo not drawn) [Gatifloxacin]", "total cell number": 1.28}
{"smiles": "O=C(c1ccccc1)c1ccc2n1CCC2C(=O)O", "note": "(stereo not drawn) [Ketorolac tris salt]", "total cell number": -1.79}
{"smiles": "O=C(c1ccccc1)c1ccc2n1CCC2C(=O)O", "note": "(stereo not drawn) [Ketorolac]", "total cell number": -2.4}
{"smiles": "O=C(Nc1ccccc1Br)N[C@@H]1CCN(c2ccc(C(F)(F)F)cn2)C1", "total cell number": -0.46}
{"smiles": "CN(C)CC(c1ccc(O)cc1)C1(O)CCCCC1", "note": "(stereo not drawn) [Desvenlafaxine Succinate]", "total cell number": -3.69}
{"smiles": "CN(C)CC(c1ccc(O)cc1)C1(O)CCCCC1", "note": "(stereo not drawn) [Desvenlafaxine]", "total cell number": -0.735}
{"smiles": "O=C(NOCC(O)CO)c1cc(Br)c(F)c(F)c1Nc1ccc(I)cc1F", "note": "(stereo not drawn)", "total cell number": -7.65}
{"smiles": "CC(=O)SCC(Cc1ccccc1)C(=O)NCC(=O)OCc1ccccc1", "note": "(stereo not drawn) [Racecadotril]", "total cell number": -0.339}
{"smiles": "C[C@H](CCC(=O)O)[C@H]1CC[C@H]2[C@@H]3CC[C@@H]4C[C@H](O)CC[C@]4(C)[C@H]3CC[C@]12C", "note": "[Lithocholic acid]", "total cell number": -1.83}
{"smiles": "O=C(O)/C=C/c1cnc[nH]1", "note": "[4-Imidazoleacrylic acid]", "total cell number": 0.0843}
{"smiles": "Cn1c(Nc2ccc(C(F)(F)F)cc2)nc2cc(Oc3ccnc(-c4ncc(C(F)(F)F)[nH]4)c3)ccc21", "total cell number": -9.57}
{"smiles": "COC(=O)C1=C(C)NC(C)=C(C(=O)OC(C)C)C1c1cccc2nonc12", "note": "(stereo not drawn) [Isradipine]", "total cell number": -1.15}
{"smiles": "CCOC(=O)Nc1ccc(NCc2ccc(F)cc2)nc1N", "note": "[Flupirtine maleate]", "total cell number": "-1.27 ± 0.77"}
{"smiles": "O=C(O)CCCC[C@@H]1SC[C@@H]2NC(=O)N[C@@H]21", "note": "[Biotin (Vitamin B7)]", "total cell number": -1.61}
{"smiles": "CC1COc2c(N3CCN(C)CC3)c(F)cc3c(=O)c(C(=O)O)cn1c23", "note": "(stereo not drawn) [Ofloxacin]", "total cell number": -0.836}
{"smiles": "CC(C)C(=O)Nc1ccc([N+](=O)[O-])c(C(F)(F)F)c1", "note": "[Flutamide]", "total cell number": "-0.0898 ± 1.8"}
{"smiles": "CC(=O)Oc1cc2c(s1)CCN(C(C(=O)C1CC1)c1ccccc1F)C2", "note": "(stereo not drawn) [Prasugrel]", "total cell number": -0.502}
{"smiles": "Cn1cnc([N+](=O)[O-])c1Sc1ncnc2[nH]cnc12", "note": "[Azathioprine]", "total cell number": "-4.77 ± 2"}
{"smiles": "CC(=O)OCC[N+](C)(C)C", "note": "[Acetylcholine Chloride]", "total cell number": 3.81}
{"smiles": "C[C@H](c1ccc(F)cc1CCCC(=O)O)N(c1cc(F)ccc1F)S(=O)(=O)c1ccc(Cl)cc1", "total cell number": -4.06}
{"smiles": "CC1(C)CCC2=C(O1)c1ccccc1C(=O)C2=O", "note": "[beta-Lapachone]", "total cell number": -11.3}
{"smiles": "CC1(C)CCC2=C(O1)c1ccccc1C(=O)C2=O", "note": "[Beta-Lapachone]", "total cell number": -16.5}
{"smiles": "S=C(NCc1ccc2c(c1)OCO2)N1CCN(c2ncnc3c2oc2ccccc23)CC1", "note": "[Amuvatinib (MP-470)]", "total cell number": -20.1}
{"smiles": "OCCN1C[C@H](O)[C@@H](O)[C@H](O)[C@H]1CO", "note": "[Miglitol]", "total cell number": -0.339}
{"smiles": "CC(C)CN(C[C@@H](O)[C@H](Cc1ccccc1)NC(=O)O[C@H]1CO[C@H]2OCC[C@H]21)S(=O)(=O)c1ccc(N)cc1", "note": "[Darunavir Ethanolate]", "total cell number": 1.35}
{"smiles": "COc1cc(/C=C/C(=O)CC(=O)/C=C/c2ccc(O)c(OC)c2)ccc1O", "note": "[Curcumin]", "total cell number": -15.5}
{"smiles": "O=C1C(SCCO)=C(SCCO)C(=O)c2ccccc21", "total cell number": -2.12}
{"smiles": "Cc1cc2c(F)c(Oc3ncnn4cc(OC[C@@H](C)O)c(C)c34)ccc2[nH]1", "total cell number": -1.9}
{"smiles": "O=C(O)CSCC(=O)NC1CCSC1=O", "note": "(stereo not drawn) [Erdosteine]", "total cell number": 1.24}
{"smiles": "Fc1ccc([C@@H]2CCNC[C@H]2COc2ccc3c(c2)OCO3)cc1", "note": "[Paroxetine HCl]", "total cell number": -11}
{"smiles": "Fc1ccc([C@@H]2CCNC[C@H]2COc2ccc3c(c2)OCO3)cc1", "note": "[Paroxetine hydrochloride hemihydrate (MW = 374.83)]", "total cell number": -10.1}
{"smiles": "Nc1nc(O)c2ncn(CCC(CO)CO)c2n1", "note": "[Penciclovir]", "total cell number": -0.0924}
{"smiles": "CN(C/C=C/C#CC(C)(C)C)Cc1cccc2ccccc12", "note": "[Terbinafine]", "total cell number": 0.0625}
{"smiles": "CN(C/C=C/C#CC(C)(C)C)Cc1cccc2ccccc12", "note": "[Terbinafine HCl]", "total cell number": 1.27}
{"smiles": "O=c1[nH]cnc2c1ncn2[C@H]1CC[C@@H](CO)O1", "note": "[Didanosine]", "total cell number": -0.938}
{"smiles": "CCCC(=O)OCOC(=O)C1=C(C)NC(C)=C(C(=O)OC)C1c1cccc(Cl)c1Cl", "note": "(stereo not drawn) [Clevidipine Butyrate]", "total cell number": -0.295}
{"smiles": "NC(CO)C(=O)NNCc1ccc(O)c(O)c1O", "note": "(stereo not drawn) [Benserazide hydrochloride]", "total cell number": 2.53}
{"smiles": "NC(CO)C(=O)NNCc1ccc(O)c(O)c1O", "note": "(stereo not drawn) [Benserazide HCl]", "total cell number": -0.925}
{"smiles": "C[C@H]1COc2c(N3CCN(C)CC3)c(F)cc3c(=O)c(C(=O)O)cn1c23", "note": "[Levofloxacin]", "total cell number": 0.884}
{"smiles": "CN(C)CCCN1c2ccccc2CCc2ccccc21", "note": "[Imipramine hydrochloride]", "total cell number": -3.21}
{"smiles": "C[N+](C)(C)CCO.[Cl-]", "note": "[Choline Chloride]", "total cell number": 0.55}
{"smiles": "CN1CCN(C2CCN(C(=O)Nc3cc(Oc4ccc(NC(=O)C5(C(=O)Nc6ccc(F)cc6)CC5)c(F)c4)ccn3)CC2)CC1", "note": "[Golvatinib (E7050)]", "total cell number": -11.9}
{"smiles": "C/C=C1\\[C@H]2C=C(C)C[C@]1(N)c1ccc(=O)[nH]c1C2", "note": "[(-)-Huperzine A (HupA)]", "total cell number": -0.573}
{"smiles": "Nc1ccc2c3c(cccc13)C(=O)NC2=O", "note": "[4-Amino-1,8-naphthalimide]", "total cell number": -4.86}
{"smiles": "CCOC(=O)[C@H](CCc1ccccc1)N[C@@H](C)C(=O)N1Cc2cc(OC)c(OC)cc2C[C@H]1C(=O)O", "note": "[Moexipril HCl]", "total cell number": -1.62}
{"smiles": "Cc1cc(O)c2c(c1)C(=O)c1cc(O)cc(O)c1C2=O", "note": "[Emodin]", "total cell number": "1.35 ± 3.1"}
{"smiles": "O=C1NC(=O)/C(=C/c2cccc(C(F)(F)F)c2)S1", "total cell number": 1.23}
{"smiles": "Clc1ccc(Nc2nnc(Cc3ccncc3)c3ccccc23)cc1", "note": "[Vatalanib (PTK787) 2HCl]", "total cell number": -11.6}
{"smiles": "Cn1cc(-c2ccc3nnc(Sc4ccc5ncccc5c4)n3n2)cn1", "total cell number": -3.2}
{"smiles": "CCC(C)n1ncn(-c2ccc(N3CCN(c4ccc(OCC5COC(Cn6cncn6)(c6ccc(Cl)cc6Cl)O5)cc4)CC3)cc2)c1=O", "note": "(stereo not drawn) [Itraconazole]", "total cell number": -6.79}
{"smiles": "Cc1cccc(Nc2ccccc2C(=O)O)c1C", "note": "[Mefenamic Acid]", "total cell number": -2.09}
{"smiles": "CCOc1cc(N)c(Cl)cc1C(=O)NCC1CN(Cc2ccc(F)cc2)CCO1", "note": "(stereo not drawn) [Mosapride Citrate]", "total cell number": 10.9}
{"smiles": "CC(N)C(=O)OC(C)(C)Cc1ccc(Cl)cc1", "note": "(stereo not drawn) [Alaproclate hydrochloride]", "total cell number": -0.939}
